# Experimental data from PubChem BioAssay AID504339 (National Center for Advancing Translational Sciences (NCATS), 2011).
# The campaign covered roughly 390,000 compounds. About 17,000 (4.4%) were called active. The inconclusive results got no clear call from the source; some entries with a clear call stand among them for comparison. Calls follow the shape of the dose curve; as a rule, active = well fitted inhibition curve with a large enough effect; inconclusive = small, poorly fitted or top-dose-only effect; inactive = no such curve, though single readings can be large or run the other way. Potencies beside an inconclusive call are fits to weak or partial responses and may not hold up.
# Target: Lysine-specific demethylase 4A (Homo sapiens) (UniProt O75164)
# Test: qHTS Assay for Inhibitors of JMJD2A-Tudor Domain; also: nearly all actives have a fitted effect of over 50% in size
# Conditions: AlphaScreen JMJD2A-Tudor / H3K4me3 peptide binding; activity change, negative = inhibition: at 114 µM (top of the series)
# % is scaled to controls: 0 for no effect and ±100 for the full control effect; potency is read from the fitted curve at half-maximal effect; tags tell the direction and shape of the fitted curve.
# UniProt O75164, sequence (O75164 whole entry, looked up, the tested form may be a part): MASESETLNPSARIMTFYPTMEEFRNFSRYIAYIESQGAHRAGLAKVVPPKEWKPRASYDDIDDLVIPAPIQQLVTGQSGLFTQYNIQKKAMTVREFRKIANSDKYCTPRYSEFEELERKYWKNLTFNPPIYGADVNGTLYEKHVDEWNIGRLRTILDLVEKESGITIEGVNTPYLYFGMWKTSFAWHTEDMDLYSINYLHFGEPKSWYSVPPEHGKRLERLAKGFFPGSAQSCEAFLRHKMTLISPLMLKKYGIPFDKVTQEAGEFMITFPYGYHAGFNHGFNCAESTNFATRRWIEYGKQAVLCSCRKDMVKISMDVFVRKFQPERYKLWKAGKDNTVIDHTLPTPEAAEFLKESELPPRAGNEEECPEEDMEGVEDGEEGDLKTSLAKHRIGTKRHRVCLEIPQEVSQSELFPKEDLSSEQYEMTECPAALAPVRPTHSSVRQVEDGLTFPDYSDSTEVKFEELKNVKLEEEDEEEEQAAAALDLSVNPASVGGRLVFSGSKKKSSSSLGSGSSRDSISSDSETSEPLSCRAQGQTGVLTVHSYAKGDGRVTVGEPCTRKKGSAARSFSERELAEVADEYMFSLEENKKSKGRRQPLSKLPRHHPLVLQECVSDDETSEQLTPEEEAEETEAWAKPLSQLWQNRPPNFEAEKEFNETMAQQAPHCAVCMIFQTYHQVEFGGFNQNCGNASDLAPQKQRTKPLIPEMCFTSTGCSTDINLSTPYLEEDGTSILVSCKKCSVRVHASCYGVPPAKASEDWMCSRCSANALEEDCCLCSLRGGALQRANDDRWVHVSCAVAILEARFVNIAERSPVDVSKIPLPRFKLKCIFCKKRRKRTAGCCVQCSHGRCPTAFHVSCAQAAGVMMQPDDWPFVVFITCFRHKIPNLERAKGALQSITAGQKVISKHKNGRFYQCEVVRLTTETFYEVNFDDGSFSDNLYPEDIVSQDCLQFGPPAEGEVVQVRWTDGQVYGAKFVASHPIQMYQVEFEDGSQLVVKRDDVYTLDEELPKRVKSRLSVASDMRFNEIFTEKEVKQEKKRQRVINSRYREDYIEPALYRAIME
SMILES,Potency,"activity change, negative = inhibition"
Nc1nc2cc(S(=O)(=O)N3CCOCC3)ccc2o1,"inconclusive: 56.2 µM [inhibitor, partial curve]",
CC(=O)NC(Cc1c[nH]c2ccccc12)C(=O)NCCc1ccccn1 (stereo unspecified),inactive,
Cc1cccc(NC(=O)c2cc([N+](=O)[O-])ccc2N2CCCCC2)n1,"inconclusive: 44.7 µM [inhibitor, partial curve]",
C(/C=C/c1ccco1)=N/N1CCN(c2ccccc2)CC1,"inconclusive: 63.1 µM [inhibitor, partial curve, poor fit]",
COc1ccc(-c2nc3n(c2Br)CCC3)cc1,"inconclusive: 56.2 µM [inhibitor, partial curve, poor fit]",
Cc1ccc(S(=O)(=O)N2CCCCC2C(=O)Nc2ccc(N(C)C)cc2)cc1 (stereo unspecified),active: 50.1 µM,
C=Cc1ccc(CSc2nc(-c3ccccc3C)nc3c2Cc2c(CO)cnc(C)c2O3)cc1,inactive,
Cc1ccc(C)c(-c2nn(CC(=O)Nc3cc(F)ccc3F)c(=O)c3c2CCCC3)c1,"inconclusive: 56.2 µM [inhibitor, partial curve]",
CCOc1cccc(CC(=O)N2CCc3c([nH]c4ccccc34)C2c2ccc(C)cc2)c1OCC (stereo unspecified),"inconclusive: 12.6 µM [inhibitor, full curve, poor fit]",
CC(Nc1cccc([N+](=O)[O-])c1)C(=O)Nc1ccc(S(=O)(=O)N2CCCC2)cc1 (stereo unspecified),inactive,
O=C(N/N=C/c1ccc[nH]1)c1cccnc1,"inconclusive: 3.16 µM [inhibitor, single point]",
O=C(O)C1=C(OCc2ccc(F)c(F)c2)C(=O)NCC1,"inconclusive: 22.4 µM [inhibitor, single point]",
Cc1ccc(-c2cc(C(F)(F)F)n3nc(C(=O)Nc4sc5c(c4C#N)CCC(C)C5)cc3n2)cc1 (stereo unspecified),inactive,
O=C1Nc2cc(C(=O)NCCCN3CCCC3)ccc2S/C1=C\c1ccccc1,"inconclusive: 50.1 µM [inhibitor, partial curve]",
COc1cccc(Nc2nc(N)c([N+](=O)[O-])c(NCc3ccco3)n2)c1,"inconclusive: 17.8 µM [inhibitor, full curve]",
CCOc1ccc(Nc2nc(Cc3nnc(SCC(=O)NCC4CCCO4)n3C)cs2)cc1 (stereo unspecified),"inconclusive: 35.5 µM [inhibitor, partial curve]",
COc1cc(C(=O)OCC(=O)NC2CCCCC2)cc2c1OCCO2,inactive,
Cc1[nH]c2ccc(C(=O)OCCN(C)C)cc2c1C,"inconclusive: 79.4 µM [inhibitor, single point]",
Cc1cc(=O)c(C(=O)Nc2ccc(N3CCOCC3)cc2N2CCOCC2)nn1-c1ccccc1Cl,"inconclusive: 79.4 µM [inhibitor, partial curve]",
COc1cccc(NC(=O)N(Cc2cn(C)c3ccccc23)C2CCCCC2)c1,"inconclusive: 39.8 µM [inhibitor, partial curve]",
Cc1cc(Nc2ccccc2Cl)n2nc(-c3ccco3)nc2n1,inactive,
Clc1ccc(C2Nc3cccc4cccc(c34)N2)c(Cl)c1,active: 35.5 µM,
CCN(CC)C(=O)CSc1nc2c(sc(=S)n2-c2ccccc2)c(=O)n1-c1ccc(OC)cc1OC,"inconclusive: 39.8 µM [inhibitor, partial curve]",
Cc1nn(CCCC(=O)Nc2sc3c(c2C#N)CCC3)c(C)c1[N+](=O)[O-],"inconclusive: 79.4 µM [inhibitor, partial curve]",

SMILES,Potency,"activity change, negative = inhibition"
CSc1ccc(/C=N/Nc2cccc(C(=O)O)c2)cc1,active: 3.98 µM,
O=[N+]([O-])c1ccc(CN2CCOCCOCCN(Cc3ccc([N+](=O)[O-])cc3)CCOCC2)cc1,"inconclusive: 35.5 µM [inhibitor, full curve]",
COc1ccc(NC2CCCN(C(=O)CSc3ccccc3)C2)cc1 (stereo unspecified),"inconclusive: 56.2 µM [inhibitor, partial curve]",
CCNC(=S)NNc1ccccc1,"inconclusive: 17.8 µM [inhibitor, full curve, poor fit]",
CC(C)CC1Nc2ncnc(N3CCN(c4ccccc4)CC3)c2N(Cc2ccccc2)C1=O (stereo unspecified),"inconclusive: 56.2 µM [inhibitor, partial curve]",
COc1ccc(NC(=O)CC(C)c2ccccc2)c([N+](=O)[O-])c1 (stereo unspecified),"inconclusive: 44.7 µM [inhibitor, single point]",
CN(Cc1ccccc1)C(=O)COC(=O)/C=C/c1ccco1,"inconclusive: 25.1 µM [inhibitor, full curve, poor fit]",
O=C(N/N=C1\CCCc2c1[nH]c1ccc(Cl)cc21)c1ccncc1,inactive,
COc1ccc2nc(C)cc(N/N=C/c3ccccc3)c2c1,"inconclusive: 56.2 µM [inhibitor, partial curve]",
O=C(COC(=O)c1ccc(Cl)c(S(=O)(=O)N2CCCCC2)c1)NCc1ccco1,"inconclusive: 39.8 µM [inhibitor, partial curve]",
CN(C)c1ccc(C(CNS(=O)(=O)c2ccc(F)c(F)c2)c2c[nH]c3ccccc23)cc1 (stereo unspecified),active: 22.4 µM,
CN1CCN(C(=O)CCN2C(=O)/C(=C/c3ccccc3Cl)SC2=S)CC1,"inconclusive: 56.2 µM [inhibitor, partial curve]",
COc1ccc(CCNc2ncnc3c2c(-c2ccccc2)cn3-c2cccc(Cl)c2)cc1OC,inactive,
COc1ccccc1N1CCN(C(=O)C2CCCO2)CC1 (stereo unspecified),"inconclusive: 3.98 µM [inhibitor, single point]",
Cc1c(C(=O)NCCc2ccccc2)cccc1-n1cnc2cccnc21,inactive,
Cc1cccc(Nc2nnc(SCC(=O)c3c(N)n(C4CC4)c(=O)[nH]c3=O)s2)c1,inactive,
CSCCC(NS(=O)(=O)c1ccc(C)cc1)C(=O)N1CCN(S(=O)(=O)c2ccc(F)cc2)CC1 (stereo unspecified),inactive,
CCOC(=O)c1c(NC(=O)CSc2cn(CCNC(=O)c3ccccc3OC)c3ccccc23)sc2c1CCCC2,inactive,
OC(CCCC(O)c1ccccc1)c1ccccc1 (stereo unspecified),inactive,
COc1ccc(NC(=O)CC2C(=O)Nc3ccccc3N2CC(=O)N2CCCC2)cc1 (stereo unspecified),inactive,
CC(=O)Nc1ccc2c(c1)CN(c1cc(C)ccc1C)CO2,"inconclusive: 44.7 µM [inhibitor, single point]",
CCC(=S)/C=C1\Sc2ccccc2N1CCCS(=O)(=O)O,active: 28.2 µM,
Cc1c(NC(=O)CN2C(=O)NC(C)(c3ccc(OC(F)F)cc3)C2=O)c(=O)n(-c2ccccc2)n1C (stereo unspecified),inactive,
O=C(CNCc1ccc(Cl)cc1)NCc1ccco1,active: 79.4 µM,

SMILES,Potency,"activity change, negative = inhibition"
O=C(CN1CCCC1)N1CCCc2ccccc21,active: 3.55 µM,
CCn1cc(CN2CCCC(C(=O)Nc3cccc(-c4cc5ccccc5[nH]4)c3)C2)c(C)n1 (stereo unspecified),"inconclusive: 63.1 µM [inhibitor, partial curve]",
CCOC(=O)c1sc(/N=C/c2ccc(O)cc2O)cc1C,"inconclusive: 79.4 µM [inhibitor, partial curve]",
C[C@H](OC(=O)N1CCN(C(c2ccccc2)c2ccccc2)CC1)[C@@H]1O[C@@]2(C)CCC[C@H]1O2,inactive,
CCOc1cc(NC(=S)NCC2CCCO2)c(OCC)cc1NC(=O)c1ccccc1 (stereo unspecified),"inconclusive: 56.2 µM [inhibitor, partial curve]",
Nc1[nH]c2cc([N+](=O)[O-])ccc2c1-c1ccccn1,"inconclusive: 20 µM [inhibitor, full curve]",
N#CC1=C(N)C(C#N)(C#N)C2(CCC3(CC2)OCCO3)C2CC3(CC=C12)OCCO3 (stereo unspecified),inactive,
Cn1c(SCC(=O)N/N=C/c2ccco2)nc2ccccc21,inactive,
Cc1ccc(C(=O)Nc2nnc(-c3ccco3)o2)cc1,"inconclusive: 70.8 µM [inhibitor, single point]",
COc1ccccc1CN1CCCC(C(=O)N(C)Cc2ccccc2)C1 (stereo unspecified),active: 3.16 µM,
COc1ccccc1Nc1ccc(NS(=O)(=O)c2ccc(C(C)=O)cc2)cc1,active: 39.8 µM,
COc1cccc(/C=N/n2c(C)nc3ccccc3c2=O)c1O,inactive,
COc1cc(CCN2C(=O)c3cccc4cccc(c34)C2=O)c(S(=O)(=O)NCCO)cc1OC,"inconclusive: 39.8 µM [inhibitor, single point]",
CCOC(=O)C1CCN(C(=O)CN(c2ccc(Cl)c(C(F)(F)F)c2)S(C)(=O)=O)CC1,"inconclusive: 89.1 µM [inhibitor, single point]",
COc1ccccc1N1CCN(c2ncc3c(n2)CCN(Cc2ccc(C)s2)C3)CC1,"inconclusive: 50.1 µM [inhibitor, partial curve]",
O=C(N/N=C/c1ccccn1)c1cc([N+](=O)[O-])cc([N+](=O)[O-])c1,active: 56.2 µM,
O=C(c1ccco1)N1CCN(C(=O)c2cccs2)CC1,inactive,
CCc1cccc(C)c1NC(=O)CSc1nnc(-c2cc3cc(Br)ccc3o2)n1CC,"inconclusive: 89.1 µM [inhibitor, partial curve]",
CCOc1ccccc1CN1CCNC(=O)C1CC(=O)NC1CCCCC1 (stereo unspecified),inactive,
Cn1cccc1Cc1nnc(SCC(=O)NC2CCCC2)n1CCc1ccccc1,"inconclusive: 63.1 µM [inhibitor, partial curve, poor fit]",
CCCCOC(=O)c1ccc(NC(=O)c2ccc3c(c2)CCCN3S(C)(=O)=O)cc1,inactive,
COc1cc2c(cc1OC)CN(CCC(=O)c1ccc(Br)cc1)CC2,,inconclusive: -39.9% [inhibitor]
COc1ccc2c(c1)C1=NN(/C(C)=C/C(C)=O)C(c3ccc(F)cc3)C1CC2 (stereo unspecified),"inconclusive: 50.1 µM [inhibitor, partial curve]",
